Measurements from PMC4336329 (PLoS ONE, 2015).
The campaign covered roughly 310,000 compounds. About 14,000 (4.5%) showed an effect of 50% or more. Effects have a minus sign here. Some of the results follow.

The compounds below were run against human ether-à-go-go-related gene (hERG) potassium channel (human, UniProt Q12809) (assay: primary screen, population patch clamp on CHO cells stably expressing hERG).
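Also: peak tail current of the secondary pulse compared with the same well before compound.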

Sequence of human ether-à-go-go-related gene (hERG) potassium channel (Q12809 whole entry, looked up): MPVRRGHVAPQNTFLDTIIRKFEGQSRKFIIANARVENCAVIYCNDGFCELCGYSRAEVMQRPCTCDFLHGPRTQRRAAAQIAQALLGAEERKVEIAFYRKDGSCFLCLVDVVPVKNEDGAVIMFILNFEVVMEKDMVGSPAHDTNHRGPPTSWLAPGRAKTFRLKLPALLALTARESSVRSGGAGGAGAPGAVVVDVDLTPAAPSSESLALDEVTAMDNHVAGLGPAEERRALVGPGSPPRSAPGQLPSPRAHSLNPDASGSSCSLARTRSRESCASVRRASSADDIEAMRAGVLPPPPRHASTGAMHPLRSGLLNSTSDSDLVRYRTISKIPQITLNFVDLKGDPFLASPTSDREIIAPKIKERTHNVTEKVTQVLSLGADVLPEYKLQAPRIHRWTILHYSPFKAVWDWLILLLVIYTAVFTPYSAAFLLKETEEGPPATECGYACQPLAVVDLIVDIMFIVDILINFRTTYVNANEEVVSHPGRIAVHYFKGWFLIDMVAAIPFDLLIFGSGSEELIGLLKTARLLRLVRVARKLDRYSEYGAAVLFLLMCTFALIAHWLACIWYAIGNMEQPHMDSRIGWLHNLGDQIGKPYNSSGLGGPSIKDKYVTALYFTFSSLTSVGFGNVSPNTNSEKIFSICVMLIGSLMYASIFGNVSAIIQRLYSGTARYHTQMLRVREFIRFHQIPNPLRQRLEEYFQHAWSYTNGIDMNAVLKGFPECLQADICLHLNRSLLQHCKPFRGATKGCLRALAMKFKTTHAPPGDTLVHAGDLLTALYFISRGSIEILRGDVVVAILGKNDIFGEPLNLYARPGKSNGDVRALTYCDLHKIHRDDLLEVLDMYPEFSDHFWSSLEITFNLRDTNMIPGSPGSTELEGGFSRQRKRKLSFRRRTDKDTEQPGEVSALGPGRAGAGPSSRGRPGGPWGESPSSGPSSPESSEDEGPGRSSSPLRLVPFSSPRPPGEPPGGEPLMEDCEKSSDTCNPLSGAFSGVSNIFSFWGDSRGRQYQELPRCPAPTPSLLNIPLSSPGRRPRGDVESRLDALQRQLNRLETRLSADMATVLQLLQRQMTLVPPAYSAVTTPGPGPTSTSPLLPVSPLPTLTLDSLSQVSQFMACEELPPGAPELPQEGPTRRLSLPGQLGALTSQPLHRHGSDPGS

| Structure (SMILES) | hERG current change (%, negative = inhibition) at 10uM [%] |
| --- | --- |
| Cc1ccc(C)c(N2CCN(C(=O)c3ccc(Cn4c(=S)[nH]c5ccc(N6CCOCC6)cc5c4=O)cc3)CC2)c1 | -5.3 |
| CCOc1ccc(S(=O)(=O)N2CCCC(C(=O)NCc3ccccn3)C2)cc1 (stereo not drawn) | -5.54 |
| CN(C(=O)c1ccncc1)c1nnc(-c2cccnc2)s1 | 8.64 |
| CC(C)Oc1ccc(/C(O)=C2/C(=O)C(=O)N(CCN(C)C)C2c2cccs2)cc1 (stereo not drawn) | -1.9 |
| O=NN1CCCCC1 | 16.5 |
| COC(=O)[C@H](C)NC(=O)Nc1ccccc1C(F)(F)F | 13.7 |
| COC(=O)c1ccc(CSc2nc3ccccc3c(=O)n2CC(C)C)o1 | -8.97 |
| CC1CCN(C2=NN3C(=N)/C(=C\c4ccc(OC(=O)c5ccco5)cc4)C(=O)N=C3S2)CC1 | 12.6 |
| CC(C)c1ccc(C2NC(=S)NC3=C2C(=O)CCC3)cc1 (stereo not drawn) | 14 |
| CCn1cc(Cl)c(C(=O)Nc2ccc3c(c2)OCCO3)n1 | 18.4 |
| O=c1c2ccccc2nc(-c2ccc(Br)cc2)n1Cc1ccccc1 | -11.3 |
| CCOC(=O)C(=CN=C(N)Nc1nc2ccccc2o1)C(=O)OCC | 21.9 |
| O=C(NC1CC1)C1=C[C@H](c2c[nH]c3ccccc23)C[C@H](OCc2ccc(CO)cc2)O1 | -2.71 |
| COc1ccc(NC(=O)CSc2ccc(-c3cccs3)nn2)c(OC)c1 | 15.5 |
| CC#CCN1C(=O)N[C@@H](c2ccccc2)C(C(=O)OC)=C1C | 5.33 |
| CCOc1ccc(Oc2c(/C=N/NC(=O)C3CC3)c(C)nn2-c2ccccc2)cc1 | 8.41 |
| CCOC(=O)C(NC(=O)c1ccccc1)(OCC1(CC)COC1)C(F)(F)F (stereo not drawn) | 6.36 |
| Oc1[nH]c2ccccc2c1C1=NCCCC1 | 12.6 |
| COC(=O)C(Cc1ccc(O)cc1)NC(=O)C12CC3CC(CC(C3)C1)C2 (stereo not drawn) | 25.5 |
| CC(C)(C)c1ccc(C(=O)N2CCC3(CC2)NCCc2[nH]cnc23)cc1 | -8.51 |
| COC(=O)c1c(C(=O)OC)c(-c2ccccc2)n2c1CCC2 | 0.783 |
| COc1cc(OC)nc(NC2OC(=O)c3ccccc32)n1 (stereo not drawn) | 0.248 |
| CC(=O)NC(C1C(=O)CC(C)(C)CC1=O)(C(F)(F)F)C(F)(F)F | 14.4 |

| Structure (SMILES) | hERG current change (%, negative = inhibition) at 10uM [%] |
| --- | --- |
| Cc1ccc(-c2nc(C)sc2CC(=O)Nc2cccc(C)c2C)cc1 | -24.7 |
| COc1ccc(OC)c(S(=O)(=O)N2Cc3ccccc3CC2C(=O)O)c1 (stereo not drawn) | -0.319 |
| O=S(=O)(Nc1ccc(C(F)(F)F)cc1)c1cnc[nH]1 | 10.2 |
| Cc1ccc(S(=O)(=O)CC(=O)N2CCCC2)cc1 | -0.506 |
| Cc1cc(C)c2nc(C(F)(F)F)c(C#N)c(N)c2c1 | 17.4 |
| Cc1cc(Cl)cc(Br)c1OCCNCC(C)O (stereo not drawn) | -18.7 |
| Cc1ccc(Nc2ncnc(N)n2)cc1 | 9.24 |
| CC(C)OC(=O)CSc1nnc(-c2cnccn2)n1-c1ccc(Cl)cc1 | -29.6 |
| CN(CC(=O)Nc1ccc2c(c1)OCCO2)S(=O)(=O)c1ccc(Br)s1 | -5.77 |
| Cc1ccc(C2Oc3ccccc3C3=C2C(c2cccs2)n2ncnc2N3)cc1 (stereo not drawn) | -7.55 |
| COc1ccccc1C(=O)N1CCNC(=O)C1CC(=O)Nc1cccc(C)c1 (stereo not drawn) | 12.3 |
| COc1cc(OC)c(S(=O)(=O)N2CCOCC2)cc1S(=O)(=O)N1CCOCC1 | 13.9 |
| COc1ccc(S(=O)(=O)N2CCOC2CNC(=O)C(=O)NCCN2CCOCC2)cc1 (stereo not drawn) | 24.8 |
| Cc1cc(C)c(C)c(S(=O)(=O)ON2C(=O)c3ccccc3C2=O)c1C | 4.37 |
| O=C(COc1ccccc1F)N1c2ccccc2CCc2ccccc21 | 7.72 |
| CC(C)(C)C(O)C(Cc1ccccc1Cl)n1cncn1 (stereo not drawn) | 19.1 |
| COc1ccc(OC)c(C(=O)c2coc3cc(Br)c(O)c(Br)c23)c1 | -7.56 |
| Cc1ccc(C)c(NS(=O)(=O)c2ccc(NC(=O)CSc3ccc(Cl)cc3)cc2)c1 | 17.8 |
| COC(=O)C1=NN(C(=O)c2cccc(Br)c2)C(O)(c2ccc(Cl)cc2)C1 (stereo not drawn) | 13.4 |
| Cc1ccc(S(=O)(=O)NC(CC(=O)N2CCC3(CC2)OCCO3)c2ccco2)cc1 (stereo not drawn) | 3.51 |
| O=Cc1coc2ccc3ccccc3c2c1=O | 14.5 |
| COc1ccc(-c2c(-c3ccc(O)cc3O)n[nH]c2C(F)(F)F)cc1 | 4.86 |
